Measured values: the supplement of paper PMC10338343
± gives the standard deviation. The list shows a part of the results, in another mix than the full data.

Test system: MIWI (PIWIL1) piRISC loaded with L1MC piRNA (30 nt)
Assay: pre-steady-state target cleavage rate (min^-1); MIWI and MILI are mouse PIWI proteins and EfPiwi is from a freshwater sponge; tags in brackets are library labels; higher = faster piRNA-guided slicing of the target
Details: guide: L1MC piRNA 5'p-UAACUAAAUACUAUGCAAGCUGUAGGUCCU; auxiliary factor: 500 nM mouse GTSF1
Outline: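 A transcribed, DNA-blocked target RNA library (0.1 nM) and 1 nM active affinity-purified piRISC bearing one synthetic guide were incubated in HEPES–potassium acetate buffer at 33 °C for 0–8 or 0–960 min, either with or without 500 nM GTSF1 partner protein. Uncleaved targets were sequenced, normalised to depth and to weakly complementary targets, and pooled over three trials, with k3 capped at 0.0001 min^-1. The pre-steady-state cleavage rate was derived with a burst-and-steady-state fit.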

Sequence	pre-steady-state target cleavage rate
UCCUGCUACAGCUUGCAAUCUAUUUAGUAA	0.179 ± 0.04
UCCACCUACAGCUUGCAUAGUAUAAUGAAA	0.249 ± 0.04
UCCUGCUACAGCUUGCUAUGUAUUUAGUAA	0.122 ± 0.03
UCCUGGAUGUGGUUGCAUAGUAUAUAGUUA	0.00676 ± 0.0031
UCCACCUACAGCAUCCAUAGUAUUUAGUUA	0.169 ± 0.038
AGGACCUACAGGUUCCAUAGUAUUUAGUUA	0.659 ± 0.17
UCCACCUACAGCAAGCAUAGUAUUUACAAA	0.29 ± 0.047
UCCUGGAUGAGCUUGCAAAGUAUUUACAAA	0.0453 ± 0.012
UCCACCUACAGCUUCCAUAGAAUUUAGUUA	0.0393 ± 0.015
UCCACCUACAGCUUGCAUAGUAAAUAGUAA	0.363 ± 0.063
UCCUGGAUGAGCUUGCAUAGAAUUUACAAA	0.00798 ± 0.0045
AGGACCUACAGCUUGCAUAGAUUUUACAAA	0.304 ± 0.1
UCCACCUACAGCUUGCUAUGUAUUUAGUAA	0.0482 ± 0.011
